# Values of other authors, collected in article PMC12548419 (Journal of Virology, 2025).
# Conditions: cited from earlier work
SMILES,"chemical stability in acidic buffers (acidic buffers, 30°C, 7 days, HPLC)","chemical stability in aqueous solutions (aqueous solutions, especially acidic conditions (pH <4))",stability and PK properties (free base form)
"O=c1ccn([C@@H]2O[C@](F)(CO)[C@@H](O)[C@H]2O)c(=O)[nH]1 [4′-FlU, 4′-Fluorouridine]",degradation of 4′-FlU in acidic buffers at 30 °C within 7 days,poor chemical stability,–
CC(=O)OC[C@@]1(F)O[C@@H](n2ccc(=O)n(COC(=O)c3cccnc3)c2=O)[C@H](OC(C)=O)[C@@H]1OC(C)=O [VV251 in its free base form],–,–,favorable stability and PK properties
